Measurements from the RNAGym collection of RNA variant scans (doi:10.7554/elife.90254).
The source gives no read counts; variants with many changes may rest on few reads.

B1: LINE1-mini (parent)
chain: GGCAGAGCUCAACACAGCGUGGCAAAGUGGCUGUGGCUAGACUGCC

Variants of: B1
Test: self-cleavage, relative activity (ratio to wild type); higher = more cleavage; in vitro, sequencing; the parent is a self-cleaving ribozyme
Work on A4C G7A G44U yielded a self-cleavage of 0.32. A4C G7A U9A C18U U38A gave a self-cleavage of 0.11. Work on A4C G7A U9C U28A U32A U43G yielded a self-cleavage of 0. For A4C G7A U9G U20G G30A, the self-cleavage was 0.13. In the case of A4C G7C A14U A24G C37A, the self-cleavage is reported as 0.31. In the case of A4C G7C C8U A11U C15A A25U U34G, the self-cleavage is reported as 0.02. A4C G7U A26C showed a self-cleavage of 0.16. Work on A4C G7U A39U yielded a self-cleavage of 0.36. A4C G7U A41U C46U gave a self-cleavage of 0.31. A4C G7U C8G U28A G40U showed a self-cleavage of 0.12. A4C G7U C31U gave a self-cleavage of 0.86. A4C G7U G17A C46G showed a self-cleavage of 0.25. For A4C G7U U34C, the self-cleavage was 0.35. A4C G17A A26U showed a self-cleavage of 0.11. Variant A4C G17A G33A has a self-cleavage of 0.06. A4C G17C C37A U43C showed a self-cleavage of 1.44. A4C G17U C31G G40C gave a self-cleavage of 0.04. In the case of A4C G17U C42U, the self-cleavage is reported as 0.05. A4C G17U G21A G29U showed a self-cleavage of 0.14. With A4C G17U U34G the self-cleavage was 0.17. With A4C G19A U34C A39C the self-cleavage was 0.02. Variant A4C G19C C37A C42A has a self-cleavage of 0.02. In the case of A4C G21A C31G C45A, the self-cleavage is reported as 0.15. With A4C G22A A26G C31A A39C the self-cleavage was 0.08. For A4C G22A C23U A25U G30U, the self-cleavage was 0.25. For A4C G22A G29C G36U A41U, the self-cleavage was 0.07. With A4C G22A G30A the self-cleavage was 0.09. With A4C G22C A26C the self-cleavage was 0.07. For A4C G22C C46G, the self-cleavage was 0.03. With A4C G22C G27A G36U the self-cleavage was 0.02. Work on A4C G22C G27C U28G yielded a self-cleavage of 0.18. For A4C G27A C42U, the self-cleavage was 0.07. In the case of A4C G27A G29C C46A, the self-cleavage is reported as 0.03. Work on A4C G27A G30U G40U yielded a self-cleavage of 0.41. Variant A4C G27A U28C C31G has a self-cleavage of 0.05. In the case of A4C G27C G29U G33C G35U, the self-cleavage is reported as 0.06. For A4C G29A G35C, the self-cleavage was 0.16. For A4C G29A G40C A41U, the self-cleavage was 0.02. A4C G29C C45U gave a self-cleavage of 0.3. In the case of A4C G30C C31A C37U C42G, the self-cleavage is reported as 0.49. Variant A4C G30C G44A has a self-cleavage of 0.11. In the case of A4C G35A C45G, the self-cleavage is reported as 0.17. For A4C G35U U43A, the self-cleavage was 0.11. Variant A4C G36A C42A has a self-cleavage of 0.26. With A4C G36A U43A C45G the self-cleavage was 0.04. With A4C G36C G44A the self-cleavage was 0.14. Work on A4C G36U A41G yielded a self-cleavage of 0.05. With A4C G40A C46A the self-cleavage was 0.06. With A4C G40A C46U the self-cleavage was 0.05. A4C G40U G44C gave a self-cleavage of 0.02. With A4C U9A C13A A39U G40A the self-cleavage was 0.2. In the case of A4C U9A C15U G19A G35A, the self-cleavage is reported as 0.03. With A4C U9A C37U the self-cleavage was 0.05. A4C U9A G19U C23A gave a self-cleavage of 0.15. In the case of A4C U9A G29C C46A, the self-cleavage is reported as 0.02. A4C U9A G44U showed a self-cleavage of 0.07. With A4C U9C A24U U38A the self-cleavage was 0.11. A4C U9G G22A gave a self-cleavage of 0.01. In the case of A4C U9G G33A, the self-cleavage is reported as 0.06. Work on A4C U20A G22U yielded a self-cleavage of 0.04. In the case of A4C U20G G29A G36U C37U A39G, the self-cleavage is reported as 0.02. Variant A4C U20G U32C has a self-cleavage of 0.01. With A4C U20G U43G C45U the self-cleavage was 0.01. A4C U28A U34C G40C gave a self-cleavage of 0.08. A4C U28C U43A C46A showed a self-cleavage of 0.03. With A4C U34C C42A the self-cleavage was 0.06. In the case of A4C U34C U43G C46A, the self-cleavage is reported as 0.05. A4G A6C C8A C15A G29A U32A C45A C46U gave a self-cleavage of 0.17. Variant A4G A6C C8G A26U U38G A41U G44A has a self-cleavage of 0.11. A4G A6C C18A showed a self-cleavage of 0.2. Variant A4G A6C G21U A39G has a self-cleavage of 0.77. Variant A4G A6C G27C G33U has a self-cleavage of 0.14. A4G A6C G33C G40A gave a self-cleavage of 0.09. For A4G A6G A11U C37G G44U, the self-cleavage was 0.02. Work on A4G A6G A25C G36C G40A yielded a self-cleavage of 0.01. A4G A6G C8G A12U U20G gave a self-cleavage of 0.01. With A4G A6G C31G G40C the self-cleavage was 0.08. Variant A4G A11C C13G has a self-cleavage of 0.04. In the case of A4G A11C C18A G35U, the self-cleavage is reported as 0.02. For A4G A11C G30C C37U, the self-cleavage was 0.03. Variant A4G A11G A14C has a self-cleavage of 0.02. In the case of A4G A11G C15G G17C G30U, the self-cleavage is reported as 0.03. Work on A4G A11G C23U U32C yielded a self-cleavage of 0.01. With A4G A11G G19C G33A the self-cleavage was 0.04. Work on A4G A11G G29U U43C yielded a self-cleavage of 0.01. A4G A11U C13U G40A showed a self-cleavage of 0.02. With A4G A11U C18A the self-cleavage was 0. A4G A11U C31U gave a self-cleavage of 0.02. For A4G A11U G21A C37A, the self-cleavage was 0.01. With A4G A11U G33A the self-cleavage was 0.06. For A4G A11U U28G, the self-cleavage was 0.16. A4G A12C A14C gave a self-cleavage of 0.04. In the case of A4G A12C G36A C46A, the self-cleavage is reported as 0.12. In the case of A4G A12C U32C U38A, the self-cleavage is reported as 0.02. For A4G A12G A24C C37U, the self-cleavage was 0.1. With A4G A12G A39G the self-cleavage was 0.02. A4G A12G G27U C31A gave a self-cleavage of 0.14. Work on A4G A14C A26G G27C A39G A41G yielded a self-cleavage of 0. With A4G A14C C15U G30A the self-cleavage was 0.17. For A4G A14C C23G G40A, the self-cleavage was 0.14. With A4G A14C G30A A39U the self-cleavage was 0.02. Variant A4G A16C A25C G29A has a self-cleavage of 0.05. A4G A16C C18G showed a self-cleavage of 0.07. A4G A16C C45G gave a self-cleavage of 0.05. Work on A4G A16C U20C C31A U32C U43A yielded a self-cleavage of 0.48. In the case of A4G A16C U38G C45A, the self-cleavage is reported as 0.04. With A4G A16G C42G the self-cleavage was 0.03. With A4G A16G G40A the self-cleavage was 0. A4G A24C A39C gave a self-cleavage of 0.06. With A4G A24C C45U the self-cleavage was 0.06. With A4G A24G A26C U32A the self-cleavage was 0.14. Work on A4G A24G G36U yielded a self-cleavage of 0.12. For A4G A25G A26C G30U, the self-cleavage was 0.07. Work on A4G A25G C31A G36A G44U yielded a self-cleavage of 0.1. For A4G A25U G40C C42G, the self-cleavage was 0.02. A4G A26G C46G gave a self-cleavage of 0.14. For A4G A26U U32C U38C U43A, the self-cleavage was 0.03. Variant A4G A39G G44A has a self-cleavage of 0.24. For A4G A39U C42U, the self-cleavage was 0.02. Work on A4G C8A A12U C15G A25C yielded a self-cleavage of 0.06. Variant A4G C8A A12U G33C U43G C46U has a self-cleavage of 0. A4G C8A C10U A16G G33C G36C C45U gave a self-cleavage of 0.01. With A4G C8A C10U G17C the self-cleavage was 0.04. In the case of A4G C8A G21U C31U U38A, the self-cleavage is reported as 0.01. With A4G C8A G40U the self-cleavage was 0.12. With A4G C8G A14C A16U U32A the self-cleavage was 0.06. A4G C8G A16G G27U U32A G36A showed a self-cleavage of 0.01. For A4G C8G C18G, the self-cleavage was 0.02. Work on A4G C8G C23A C46U yielded a self-cleavage of 0.01. For A4G C8G C23U G35A A39C G40C C42A, the self-cleavage was 0. In the case of A4G C8G G17A U20A C23G C46U, the self-cleavage is reported as 0.01. A4G C8G G19C G21A U28G C31U showed a self-cleavage of 0.01. With A4G C8U A12U the self-cleavage was 0.34. A4G C8U C10G C23U C45A gave a self-cleavage of 0.01. Variant A4G C8U C31A A39U has a self-cleavage of 0.03. A4G C8U G17U A26C U34A A41G gave a self-cleavage of 0.16. A4G C10A A12U A14G showed a self-cleavage of 0. For A4G C10A A25C G30C G33U G35U, the self-cleavage was 0.04. Work on A4G C10A A39C yielded a self-cleavage of 0.01. With A4G C10A C42A G44U the self-cleavage was 0.01. A4G C10A G19C U43A showed a self-cleavage of 0. For A4G C10A G27U C45G, the self-cleavage was 0.02. With A4G C10G A24C G30U C46A the self-cleavage was 0.01. For A4G C10G C15A G22A G29U U43G, the self-cleavage was 0. A4G C10G G17C A39U gave a self-cleavage of 0.03. A4G C10U C31A U32G G44A showed a self-cleavage of 0.02. For A4G C13A C15G G30U, the self-cleavage was 0.03. For A4G C13A G29C, the self-cleavage was 0.05. For A4G C13A G33U U34G, the self-cleavage was 0.12. A4G C13A U28G U34C gave a self-cleavage of 0.03. A4G C13G U28C G30U G40A C46G gave a self-cleavage of 0.03. For A4G C13U A14C A16G U32C A39G G40U, the self-cleavage was 0.25. A4G C13U C18A showed a self-cleavage of 0.01. For A4G C13U C37G, the self-cleavage was 0.04. For A4G C13U G40A C45G, the self-cleavage was 0.08. In the case of A4G C13U U38A C42A G44C, the self-cleavage is reported as 0.04. With A4G C15A A16G C31U the self-cleavage was 0.15. A4G C15A G21A showed a self-cleavage of 0.03. A4G C15G G21U G22U G27C G29A showed a self-cleavage of 0.01. A4G C15G G22C G44A gave a self-cleavage of 0.36. Work on A4G C15G U20A G27A C42U yielded a self-cleavage of 0.05. A4G C15G U38A showed a self-cleavage of 0.01. Work on A4G C15U G33C C46A yielded a self-cleavage of 0.08. Variant A4G C18A G22C A26C has a self-cleavage of 0.08. A4G C18A G33C C42A showed a self-cleavage of 0.29. Variant A4G C18A U34A C37A has a self-cleavage of 0.02. A4G C18G A24C showed a self-cleavage of 0.12.
